Values marked as one replicate rest on one cluster of the flow cell; about a third of the high ones do not repeat.
System: ATP
Experiment: switch fluorescence ratio, 500 uM ATP over buffer (Cy3 cluster intensity, sum of 5 cycles each) (fold (ratio)); higher = stronger signal-on switching upon ATP binding; sequences stand for … in TCGTCGGCAGCGTCAGATGTGTATAAGAGACAGTTTTTTTTTTTTTTTTTTTTTTTTT…TC
Settings: aptamer strand: ATP DNA aptamer (quencher-CACCTGGGGGAGTATTGCGGAGGAAGG + anchor), 100 nM annealed; ATP concentration: 500 uM; one replicate
How it was run: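 Cy3-labelled switching-strand clusters on a modified Illumina MiSeq flow-cell were annealed to 100 nM quencher-labelled ATP aptamer and imaged first in selection buffer, then after 15 min with 500 uM ATP at 22 °C. NaOH stripping and re-annealing separated each of five buffer/ATP cycles, and clusters outside 100-1000 RFU were excluded. The fluorescence ratio sums target-cycle Cy3 intensity over buffer-cycle Cy3 intensity per cluster and averages it per switch-domain sequence.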
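Note: ATP exposure 15 min at 22 °C before imaging.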

Sequence | switch fluorescence ratio
TGGCGTTCTG | 0.983
GCCAACGCTC | 1.53
GGGTTGCGCC | 1
TCCGGGGGT | 1.09
ACAATGGAGG | 1.02
AACCCGTTT | 0.999
TGACACTGCG | 0.999
TGAAGAGCGT | 1.04
GCAATGTTTG | 1.13
ATAGGTTTCT | 1.06
GTTGTTTCCA | 0.985
TTGGCATCC | 1.04
TATAGAGTT | 0.969
CCTGTTTTT | 0.996
CCCTGGTATT | 0.967
GTGGCGATGT | 0.972
GCCCTAGCCC | 0.964
CTCTCGGGGA | 1.06
AAGCGGAAAC | 1.14
CATAAATTAC | 1.24
GACAAAAAGC | 0.998
TAACAGGCTG | 0.98
GGGTAATATT | 1.04
GGTGGAGGG | 1.01
GTTAAACGCA | 1.06
CGTCAGGAAC | 1.07

Sequence | switch fluorescence ratio
GGGCAAAAAT | 1.03
TTACAATTGG | 1.03
ATTGACCGTC | 1.03
TCTCCATCCG | 1.22
TACTGGTCAG | 0.998
AGCCAACCGC | 1.03
GCTAGCTTGT | 1.02
AGGAACTGCG | 1
GCTCAGATGG | 0.997
TTCTTTCTGC | 0.951
TATATGAAAG | 0.982
ATTGCTGCTA | 0.957
TATAGTACA | 1.03
AGGACCGGAG | 1.03
TATAAGCCTT | 0.989
GAACTTAC | 1.32
CGACGAGAAA | 1.03
CTTTGGACGA | 1.01
AGGGGCGGA | 0.994
GCTAATGGTT | 0.985
TGGTGGCGA | 0.993
ATAAGAAGGC | 0.991
TGGGGACCAG | 0.988
ACTTACTGCT | 1.13
GCTGGCGAAC | 0.997
TGCGTTTAA | 1.02

Sequence | switch fluorescence ratio
TTTTGGGTT | 1.04
CGGTCTAAGC | 1.03
GTCTAACAGT | 0.977
TCGAAGGCAA | 1.14
CGTAAGTTCA | 1.08
TAGTACAAGC | 1.03
CTCTACCTCA | 1.04
TATGCTTTTT | 1.04
CCGCAGCCCA | 5.64
TTGTTTACT | 0.98
AGGGAACTTT | 0.978
CTGTTGGGTA | 0.986
AGCGCTGTTC | 1.03
TAAGTGAAGC | 1.01
GCGAGCTGGG | 1
TGGTGAGGCA | 1.02
AAAGAGAGGC | 1.01
CCTACTTAGA | 1.1
CCCAGTACAG | 1.06
TACCCCCGGA | 1.24
GTTTTGAAGC | 1.05
ACTCCCCCCA | 1.83
AGAACTCTCA | 0.991
AGGTTACTCG | 1.01
ACTATTAACA | 1.01
ATTCTTGGAT | 1.01

Sequence | switch fluorescence ratio
TTTAGCACGG | 0.96
GAGATCCCAC | 1
GTAACGAGGT | 1.02
TAAGGCCGAT | 0.995
GAGGTGAATC | 0.965
CCGAGTGGTT | 1.04
GAAAGCTTGC | 1.27
CGCGTGCCAA | 1.08
AATTGCCGTC | 1
AAGTTTCTGG | 0.952
CTCCAATGGA | 1.07
AGACGTCGGA | 0.955
GGAGCCCCTT | 1.09
GTTGGCAACT | 0.992
TAACTGACGC | 1.2
ATGCGTCCAA | 1.02
GATAGGGAGT | 1.05
TACAGGT | 1.01
ATAATACATT | 0.99
ACTAAGGTGA | 1.19
TATCTGGCAT | 1.01
GGCGGAGTTT | 1
CGGGTAGCGC | 0.998
CAGGGTGTCT | 1.04
CTCTATAGAC | 1.82
CGGCCATGTC | 0.98

Sequence | switch fluorescence ratio
ACACGGAGTA | 1.02
AGGTACGATA | 1.07
AATCCTGTAG | 1.07
ACCCATAAGG | 1.01
AGTTCTCCCG | 1.06
CAACAAAACA | 1.16
TAAACCTAAG | 1.09
CTATGGCAAA | 1.04
GGATGATATA | 1.04
TTCTCGAAT | 1.01
TCGTAAACGA | 1
CGGGGTAGC | 0.961
AGACGATTCC | 1.05
CTTTGTTCGG | 1.01
CAAAGTTG | 1.03
CTATTCAACC | 0.968
CATGCCATGG | 1.01
TGTGGGAGTG | 0.973
GGGTCAGTA | 1.05
CGGTCCATC | 1.04
GTGGTCTTGG | 0.973
TTAACTTTGA | 0.999
AGAGCCATAT | 1.04
CAAAAGGGCA | 1.01
GATTGACAGC | 1.11
ATCAGCCGAG | 1.02

Sequence | switch fluorescence ratio
GACTCGGGTA | 1.02
GTTCGCTCCG | 1.04
ATTGGGACGT | 0.957
GATGTCATCG | 0.945
TTCTGTAACG | 1.01
CTGCGTAAAC | 3.2
AATGTCCTCA | 1.01
ATTGCTCCT | 0.999
GGCTGTTTCC | 0.954
CCGGACGGGC | 1.14
GACGTCATTA | 1.03
CCGTCAGGTA | 1.02
CGTTTTGAGA | 1.06
ACAAGACT | 1.14
TCCGCTGAGA | 1.27
TGCGGATAAA | 1.02
AACGATTTCG | 1.01
GGGCCTGACC | 0.992
CCGAGTCATC | 2.26
CGGATAGATG | 1.04
TCACCGTGTG | 1.59
CCTTGGATGG | 0.994
AAGGTGCTTT | 1.2
TCCAATTAAC | 1.06

Source: the supplement of paper PMC10126150
